Laboratory results as given in the supplement of paper PMC11417369.
This is one part of the list.

test system: PfHDP1 homeodomain (GST-tagged); experiment: gcPBM binding intensity (ln(normalized median fluorescence intensity)); higher = stronger DNA binding
Procedure, shortened: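 Each value is the highest Masliner-normalised natural-log median intensity across replicate spots of either orientation of a probe. The probes were primer-extended double-stranded 36-bp intergenic genomic sequences on an Agilent 4 × 180k array, alongside negative controls, exposed for 1 h to GST-tagged P. falciparum DNA-binding domains expressed in E. coli. Bound protein was picked up with Alexa488 anti-GST antibody and scanned at 488 nm.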

Row | Sequence | gcPBM binding intensity (ln)
1 | TTTTTTTGAACATATACACACTCTAAACTTATACAT [CACACA_site3917] | 6.7
2 | AAAAACTAATCTTTAACATGCAACCGTTTATACATA [TGCATGCA_site363] | 6.58
3 | TTTTGCAATAATGTTGCACACTAAATAGTCATCTAT [CACACA_site4304] | 9.09
4 | ATTTCATAAATTAAACGTACATAATACACACACATG [XGTACX_site4155] | 7.08
5 | GTACGATAAAAAATTGGACAAAAAAAAAAAAAAAAT [XGTACX_negctrl_site158] | 6.28
6 | TAAAACAACAAAGAAAATGAAAAAGTAAAAACATAT [CACACA_negctrl_site1049] | 6.82
7 | AAAAAAAAAAAAGGAGGTACACAATTTTATATATGC [XGTACX_site5296] | 6.37
8 | ACAAGTCAGGCAAAAACATGCATTATTTGAACATTA [TGCATGCA_site864] | 6.42
9 | ACATTTTTTTCATATCGTACATATTATAATATTTTC [XGTACX_site6524] | 7.09
10 | GAGCATTACCCATATACACACATATATATAAACCTA [CACACA_site2737] | 7.1
11 | TTTCCTTATTAAAACACACAAATACATTATTTAATC [CACACA_site7080] | 6.38
12 | ACCCATAAAAAGGATACACACACACCCACCCATATA [CACACA_site8205] | 7.17
13 | ATATATATATTTGTATGTACATATATATATTCGTAT [XGTACX_site1640] | 8.17
14 | ACTGTAAAAGGATTTACACACATATTTACATTTACA [CACACA_site519] | 6.73
15 | ATGCATATAACTACGTGTACAAATATACACAAATAC [XGTACX_site8811] | 7.05
16 | TACCAATGCATAACGGTGCAAAAAAATAAGGAATAA | 10.3
17 | ATAATTATTTTAGAAACACACAAATTAGAAAAAACA [CACACA_site3636] | 6.98
18 | AATCCTTACGGACACACACACACGAATAAATAAAAA [CACACA_site4422] | 6.68
19 | GAGTATTCAAGTATTAGTACATATTATATAATAAAT [XGTACX_site7630] | 6.64
20 | TAAAATAAAAATTAAAGTACATATGTATATATATAT [XGTACX_site3984] | 8.79
21 | TACAAAATGGGGAACACACACATATATAAATAAATA [CACACA_site7751] | 6.9
22 | CTATCATATTTATGCACACAAAAATAATTAATTCGT [CACACA_site2614] | 9.43

Row | Sequence | gcPBM binding intensity (ln)
23 | ACCTGTTCATATGATCGTACACGTCAGTTTATATGA [XGTACX_site3869] | 6.81
24 | TATTTTGAGAATAAATGTACGAATTTTATATTTAAA [XGTACX_site1336] | 5.89
25 | ACATTAAAATATGATTGTACATTTTATTATATTATA [XGTACX_site912] | 6.4
26 | ACAACACTATATTACACATGCATTAAGAGAGTGAAC [TGCATGCA_site124] | 6.85
27 | ATTCAAATATTAAAAAGTACAAAAAAAAAACAAAAA [XGTACX_site1174] | 6.66
28 | ATATAATTATTGATATGTACATATTTGTTCTAGTTT [XGTACX_site3012] | 6.95
29 | TTTTTATAAAAATTATTAAAAAAATTATTTATAGCT [CACACA_negctrl_site265] | 5.75
30 | TAGCGCATAAAAAAAAAAAAATATATACTAATAAAT [GTGCAC_negctrl_site276] | 6.22
31 | AAATATATTATTATCTTATCAATTAAAAGAATAAAC [CACACA_negctrl_site779] | 6.32
32 | TTTTTTTTCAATCTCTATATATTAAGGTTTATATTT [XGTACX_negctrl_site397] | 6.4
33 | TTACTTAAATATAAGTGTCCTCAAAAAAAAAAAAAA [XGTACX_site460] | 6.17
34 | ATGTATGTTTTTTTTTTATTGTTCAAAAAGTTGAAG [CACACA_negctrl_site1276] | 6.69
35 | ATTTTTTATATTAATTGTACATTGTATATATATATA [XGTACX_site8702] | 8.85
36 | AATATAAGTTTATTAGTGCACAGATAAATATATATT [GTGCAC_site9784] | 9.52
37 | TTTTTTTCTAATTATGCACACATATCAAAATATTCA [CACACA_site8886] | 10.2
38 | ATATTTATTATATAATGTACAAAAAAAAAAAAAAAA [XGTACX_site629] | 6.29
39 | CGTGTGTCCCCCTTAATCATCCAATCGTTCATTTTG [CACACA_negctrl_site1008] | 6.31
40 | TATATAATGGTAAAAACACACAAATATGAAGATGTT [CACACA_site722] | 6.31
41 | CATATTCCCCCCCACACACACACACCCATACATACC [CACACA_site2303] | 9.35
42 | AATAAATAGATATATACACACATATATCTATAATAT [CACACA_site6557] | 6.33
43 | AAATATAAAAGTATATGTACATATATATATATATAT [XGTACX_site7446] | 9.51
44 | GACAATAAAAAGAAAAGTACATATATAAATTAACCA [XGTACX_site7858] | 6.51
